In publication PMC11947619, “Molecular mechanism of Mad2 conformational conversion promoted by the Mad2‐interaction motif of Cdc20” (Protein Science : A Publication of the Protein Society, 2025):

B2: C-Mad2^WT:Mad1^MIM (complex)
chain: not shown
peptide: RALQGDYDQSRTKVLHMSLNPT
notes: Mad2, human, wild type, as m1, in the closed state; Formed beforehand and used as the partner of O-Mad2^WT; also called C-Mad2:Mad1^MIM; source: unlabeled
B3: C-Mad2^WT:Cdc20^MIM (complex)
chain: not shown
peptide: FDVEEAKILRLSGKPQNAPEGYQNRLKVLY
notes: Mad2, human, wild type, as m1, in the closed state; also called C-Mad2:Cdc20^MIM

Legend:
C-Mad2^WT:Mad1^MIM = target: B2; experiment: SEC-MALS; 100 μL Mad2 sample at 300 μM on Superdex 75 10/300 GL increase, 4 °C, 20 mM HEPES pH 7.0, 100 mM NaCl, 1 mM TCEP, 5% D2O, 0.5 mL/min; details: both partners purified
C-Mad2^WT:Cdc20^MIM = target: B3; experiment: NMR (2D 1H,15N HSQC before and after adding the partner); 300 μM samples, 950 MHz, 25°C, 20 mM HEPES pH 7.0, 100 mM NaCl, 1 mM TCEP, 5% D2O; in dimeric samples only one monomer isotopically labeled; Cdc20^MIM-123-152 at two-fold molar excess; details: both partners purified
[1] = target: the molecule itself; experiment: SEC-MALS; 100 μL Mad2 sample at 300 μM on Superdex 75 10/300 GL increase, 4 °C, 20 mM HEPES pH 7.0, 100 mM NaCl, 1 mM TCEP, 5% D2O, 0.5 mL/min

Sequence of C-Mad2^WT:Cdc20^MIM (Q13257 whole entry): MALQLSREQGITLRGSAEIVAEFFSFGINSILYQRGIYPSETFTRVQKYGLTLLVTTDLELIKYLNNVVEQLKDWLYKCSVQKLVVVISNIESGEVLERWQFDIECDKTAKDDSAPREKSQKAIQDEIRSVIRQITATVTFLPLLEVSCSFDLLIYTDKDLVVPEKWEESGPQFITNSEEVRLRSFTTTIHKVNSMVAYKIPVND
Sequence of C-Mad2^WT:Mad1^MIM (Q13257 whole entry): as above

B1: human wild-type Mad2 (natural protein)
chain: not shown
notes: Mad2, human, wild type; limits follow from Mad2^Δβ7/β8 ([…]), made from this construct by deleting […]; Tag is followed by a TEV site; 15N-labelled for NMR; Expressed and kept cold as the open state (O-Mad2); Construct described in Fischer et al. 2022; also called Mad2^WT; O-Mad2^WT; source: E. coli BL21 Star (DE3) with pRARE, purified
- binding result (C-Mad2^WT:Mad1^MIM): binds

Binder: B2
- binding result (C-Mad2^WT:Cdc20^MIM): binds

Binder: B3
- stoichiometry N [1]: 2
